# In the supplement of paper PMC8728848:
# This is one part of the list.
# Assays:
# Assay in all cases: glycan array binding signal (z-score within array); higher = stronger binding
# Conditions in all cases: glycan notation: IUPAC condensed, linker removed
# [1] = molecular target: GlcNAc(b1-4)GlcNAc(b1-4)GlcNAc(b1-4)GlcNAc(b1-4)GlcNAc(b1-4)GlcNAc
# How it was run: (§1)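 Glycan array data were curated from 3228 arrays in the Consortium for Functional Glycomics database and kept only where the protein sequence was available. Glycan names were converted to IUPAC-condensed notation, and columns mapping to the same glycan were averaged. The binding signal is a within-array Z-score, averaged across arrays of the same protein sequence at different concentrations or buffers and across linkers. Negative Z-scores can be read as non-binding.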
# [2] = molecular target: GlcNAc(b1-4)[GlcNAc(b1-6)]GalNAc
# How it was run: as §1
# [3] = molecular target: GlcNAc(b1-6)Gal(b1-4)GlcNAc
# How it was run: as §1
# GlcNAc(b1-6)GalNAc = molecular target: GlcNAc(b1-6)GalNAc
# How it was run: as §1
# [4] = molecular target: GlcNAc6S(b1-3)Gal(b1-4)GlcNAc
# How it was run: as §1
# Kdn(a2-3)Gal(b1-3)GalNAc = molecular target: Kdn(a2-3)Gal(b1-3)GalNAc
# How it was run: as §1
# Kdn(a2-3)Gal(b1-3)GlcNAc = molecular target: Kdn(a2-3)Gal(b1-3)GlcNAc
# How it was run: as §1
# Kdn(a2-3)Gal(b1-4)Glc = molecular target: Kdn(a2-3)Gal(b1-4)Glc
# How it was run: as §1
# Kdn(a2-3)Gal(b1-4)GlcNAc = molecular target: Kdn(a2-3)Gal(b1-4)GlcNAc
# How it was run: as §1
# [5] = molecular target: Kdn(a2-3)Gal(b1-4)[Fuc(a1-3)]GlcNAc
# How it was run: as §1
# Kdn(a2-6)Gal(b1-4)GlcNAc = molecular target: Kdn(a2-6)Gal(b1-4)GlcNAc
# How it was run: as §1
# [6] = molecular target: Man(a1-2)Man(a1-2)Man(a1-3)Man
# How it was run: as §1
# [7] = molecular target: Man(a1-2)Man(a1-2)Man(a1-6)[Man(a1-3)]Man
# How it was run: as §1
# Man(a1-2)Man(a1-3)Man = molecular target: Man(a1-2)Man(a1-3)Man
# How it was run: as §1
# [8] = molecular target: Man(a1-2)Man(a1-3)[Man(a1-2)Man(a1-6)]Man
# How it was run: as §1
# [9] = molecular target: Man(a1-2)Man(a1-3)[Man(a1-2)Man(a1-6)]Man(a1-6)[Man(a1-2)Man(a1-2)Man(a1-3)]Man
# How it was run: as §1
# [10] = molecular target: Man(a1-2)Man(a1-3)[Man(a1-2)Man(a1-6)]Man(a1-6)[Man(a1-2)Man(a1-2)Man(a1-3)]Man(b1-4)GlcNAc(b1-4)GlcNAc
# How it was run: as §1
# [11] = molecular target: Man(a1-2)Man(a1-3)[Man(a1-6)]Man(a1-6)[Man(a1-2)Man(a1-3)]Man(b1-4)GlcNAc(b1-4)GlcNAc
# How it was run: as §1
# [12] = molecular target: Man(a1-2)Man(a1-6)[Man(a1-3)]Man(a1-6)[Man(a1-2)Man(a1-2)Man(a1-3)]Man
# How it was run: as §1
# [13] = molecular target: Man(a1-2)Man(a1-6)[Man(a1-3)]Man(a1-6)[Man(a1-2)Man(a1-2)Man(a1-3)]Man(b1-4)GlcNAc(b1-4)GlcNAc
# How it was run: as §1
# Man(a1-3)[Man(a1-6)]Man = molecular target: Man(a1-3)[Man(a1-6)]Man
# How it was run: as §1
# [14] = molecular target: Man(a1-3)[Man(a1-6)]Man(a1-6)[Man(a1-2)Man(a1-3)]Man(b1-4)GlcNAc(b1-4)GlcNAc
# How it was run: as §1
# [15] = molecular target: Man(a1-3)[Man(a1-6)]Man(a1-6)[Man(a1-3)]Man
# How it was run: as §1
# [16] = molecular target: Man(a1-3)[Man(a1-6)]Man(a1-6)[Man(a1-3)]Man(b1-4)GlcNAc(b1-4)GlcNAc
# How it was run: as §1
# [17] = molecular target: Man(a1-3)[Man(a1-6)]Man(b1-4)GlcNAc(b1-4)GlcNAc
# How it was run: as §1
# [18] = molecular target: Man(a1-3)[Man(a1-6)]Man(b1-4)GlcNAc(b1-4)[Fuc(a1-6)]GlcNAc
# How it was run: as §1
# Man(a1-6)Man = molecular target: Man(a1-6)Man
# How it was run: as §1
# Man(b1-4)GlcNAc = molecular target: Man(b1-4)GlcNAc
# How it was run: as §1
# MurNAc(b1-4)GlcNAc = molecular target: MurNAc(b1-4)GlcNAc
# How it was run: as §1
# Neu5Ac(a2-3)Gal = molecular target: Neu5Ac(a2-3)Gal
# How it was run: as §1
# [19] = molecular target: Neu5Ac(a2-3)Gal(b1-3)GalNAc
# How it was run: as §1
# [20] = molecular target: Neu5Ac(a2-3)Gal(b1-3)GalNAc(b1-3)Gal(a1-4)Gal(b1-4)Glc
# How it was run: as §1
# [21] = molecular target: Neu5Ac(a2-3)Gal(b1-3)GalNAc(b1-4)[Neu5Ac(a2-3)]Gal(b1-4)Glc
# How it was run: as §1
# [22] = molecular target: Neu5Ac(a2-3)Gal(b1-3)GalNAc(b1-4)[Neu5Ac(a2-8)Neu5Ac(a2-3)]Gal(b1-4)Glc
# How it was run: as §1
# [23] = molecular target: Neu5Ac(a2-3)Gal(b1-3)GalNAc6S
# How it was run: as §1
# [24] = molecular target: Neu5Ac(a2-3)Gal(b1-3)GlcNAc
# How it was run: as §1
# [25] = molecular target: Neu5Ac(a2-3)Gal(b1-3)GlcNAc(b1-2)Man
# How it was run: as §1
# [26] = molecular target: Neu5Ac(a2-3)Gal(b1-3)GlcNAc(b1-2)Man(a1-3)[GlcNAc(b1-4)][Neu5Ac(a2-3)Gal(b1-3)GlcNAc(b1-2)Man(a1-6)]Man(b1-4)GlcNAc(b1-4)GlcNAc
# How it was run: as §1
# [27] = molecular target: Neu5Ac(a2-3)Gal(b1-3)GlcNAc(b1-2)Man(a1-3)[Neu5Ac(a2-3)Gal(b1-3)GlcNAc(b1-2)Man(a1-6)]Man(b1-4)GlcNAc(b1-4)GlcNAc
# How it was run: as §1
# [28] = molecular target: Neu5Ac(a2-3)Gal(b1-3)GlcNAc(b1-3)Gal(b1-3)GlcNAc
# How it was run: as §1
# [29] = molecular target: Neu5Ac(a2-3)Gal(b1-3)GlcNAc(b1-3)Gal(b1-4)GlcNAc
# How it was run: as §1
# [30] = molecular target: Neu5Ac(a2-3)Gal(b1-3)GlcNAc(b1-3)GalNAc
# How it was run: as §1
# [31] = molecular target: Neu5Ac(a2-3)Gal(b1-3)GlcNAc(b1-4)Gal(b1-4)Glc
# How it was run: as §1
# [32] = molecular target: Neu5Ac(a2-3)Gal(b1-3)GlcNAc(b1-6)GalNAc
# How it was run: as §1
# [33] = molecular target: Neu5Ac(a2-3)Gal(b1-3)GlcNAc6S
# How it was run: as §1
binder,measurement,setting,value
TIM1 (protein) ADGIQSVKVGGEAGPSVTLPCHYSGAVTSMCWNRGSCSLFTCQNGIVWTNGTHVTYRKDTRYKLLGDLSRRDVSLTIENTAVSDSGVYCCRVEHRGWFNDMKITVSLEIVPPHHHHHH,glycan array binding signal (z-score),[1],-0.196
same,glycan array binding signal (z-score),[2],-0.196
same,glycan array binding signal (z-score),[3],-0.288
same,glycan array binding signal (z-score),GlcNAc(b1-6)GalNAc,-0.196
same,glycan array binding signal (z-score),[4],-0.142
same,glycan array binding signal (z-score),Kdn(a2-3)Gal(b1-3)GalNAc,0.111
same,glycan array binding signal (z-score),Kdn(a2-3)Gal(b1-3)GlcNAc,-0.158
same,glycan array binding signal (z-score),Kdn(a2-3)Gal(b1-4)Glc,0.036
same,glycan array binding signal (z-score),Kdn(a2-3)Gal(b1-4)GlcNAc,-0.254
same,glycan array binding signal (z-score),[5],-0.116
same,glycan array binding signal (z-score),Kdn(a2-6)Gal(b1-4)GlcNAc,-0.063
same,glycan array binding signal (z-score),[6],-0.236
same,glycan array binding signal (z-score),[7],-0.274
same,glycan array binding signal (z-score),Man(a1-2)Man(a1-3)Man,-0.239
same,glycan array binding signal (z-score),[8],-0.292
same,glycan array binding signal (z-score),[9],-0.26
same,glycan array binding signal (z-score),[10],-0.213
same,glycan array binding signal (z-score),[11],-0.202
same,glycan array binding signal (z-score),[12],-0.199
same,glycan array binding signal (z-score),[13],-0.285
same,glycan array binding signal (z-score),Man(a1-3)[Man(a1-6)]Man,-0.233
same,glycan array binding signal (z-score),[14],0.218
same,glycan array binding signal (z-score),[15],-0.149
same,glycan array binding signal (z-score),[16],-0.168
same,glycan array binding signal (z-score),[17],-0.147
same,glycan array binding signal (z-score),[18],-0.082
same,glycan array binding signal (z-score),Man(a1-6)Man,-0.034
same,glycan array binding signal (z-score),Man(b1-4)GlcNAc,-0.175
same,glycan array binding signal (z-score),MurNAc(b1-4)GlcNAc,-0.251
same,glycan array binding signal (z-score),Neu5Ac(a2-3)Gal,-0.22
same,glycan array binding signal (z-score),[19],0.3
same,glycan array binding signal (z-score),[20],-0.249
same,glycan array binding signal (z-score),[21],-0.178
same,glycan array binding signal (z-score),[22],-0.213
same,glycan array binding signal (z-score),[23],-0.243
same,glycan array binding signal (z-score),[24],-0.239
same,glycan array binding signal (z-score),[25],-0.28
same,glycan array binding signal (z-score),[26],-0.235
same,glycan array binding signal (z-score),[27],-0.25
same,glycan array binding signal (z-score),[28],-0.26
same,glycan array binding signal (z-score),[29],-0.267
same,glycan array binding signal (z-score),[30],-0.228
same,glycan array binding signal (z-score),[31],-0.155
same,glycan array binding signal (z-score),[32],0.039
same,glycan array binding signal (z-score),[33],-0.234
